Results on 31 molecules are retold here after publication PMC9911399, “Two distinct binding modes provide the RNA-binding protein RbFox with extraordinary sequence specificity”.

The labels stand for the following.
T1: RBFOX1 RRM (Homo sapiens, UniProt Q9NWB1 109-208)
T1 sequence: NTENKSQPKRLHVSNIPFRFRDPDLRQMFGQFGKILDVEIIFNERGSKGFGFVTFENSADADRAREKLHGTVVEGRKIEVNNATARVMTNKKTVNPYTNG

B1: GGGACUG (DNA:RNA)
RNA: GGGAGACCGGAAUUCAGAUUGUCCGGGACUGUUAAAUCCCGUCGUAGCCACCA
DNA 1: CAATCTGAATTCCGGTCTCCC
DNA 2: TGGTGGCTACGACGGGATT
B2: CCCAAUG (DNA:RNA)
RNA: B1 RNA with G25C, G26C, G27C, C29A
DNA 1: CAATCTGAATTCCGGTCTCCC
DNA 2: TGGTGGCTACGACGGGATT
B3: UUAGUCG (DNA:RNA)
RNA: B1 RNA with G25U, G26U, G27A, A28G, C29U, U30C
DNA 1: CAATCTGAATTCCGGTCTCCC
DNA 2: TGGTGGCTACGACGGGATT
B4: UUGAGUC (DNA:RNA)
RNA: B1 RNA with G25U, G26U, C29G, G31C
DNA 1: CAATCTGAATTCCGGTCTCCC
DNA 2: TGGTGGCTACGACGGGATT
B5: CCAAUAU (DNA:RNA)
RNA: B1 RNA with G25C, G26C, G27A, C29U, U30A, G31U
DNA 1: CAATCTGAATTCCGGTCTCCC
DNA 2: TGGTGGCTACGACGGGATT
B6: GCAAGUU (DNA:RNA)
RNA: B1 RNA with G26C, G27A, C29G, G31U
DNA 1: CAATCTGAATTCCGGTCTCCC
DNA 2: TGGTGGCTACGACGGGATT
B7: GGACCGG (DNA:RNA)
RNA: B1 RNA with G27A, A28C, U30G
DNA 1: CAATCTGAATTCCGGTCTCCC
DNA 2: TGGTGGCTACGACGGGATT
B8: GGCUGCU (DNA:RNA)
RNA: B1 RNA with G27C, A28U, C29G, U30C, G31U
DNA 1: CAATCTGAATTCCGGTCTCCC
DNA 2: TGGTGGCTACGACGGGATT
B9: GGGGUAC (DNA:RNA)
RNA: B1 RNA with A28G, C29U, U30A, G31C
DNA 1: CAATCTGAATTCCGGTCTCCC
DNA 2: TGGTGGCTACGACGGGATT
B10: UAUGCCG (DNA:RNA)
RNA: B1 RNA with G25U, G26A, G27U, A28G, U30C
DNA 1: CAATCTGAATTCCGGTCTCCC
DNA 2: TGGTGGCTACGACGGGATT
B11: GUAGGCU (DNA:RNA)
RNA: B1 RNA with G26U, G27A, A28G, C29G, U30C, G31U
DNA 1: CAATCTGAATTCCGGTCTCCC
DNA 2: TGGTGGCTACGACGGGATT
B12: UCUACGG (DNA:RNA)
RNA: B1 RNA with G25U, G26C, G27U, U30G
DNA 1: CAATCTGAATTCCGGTCTCCC
DNA 2: TGGTGGCTACGACGGGATT
B13: AACGACG (DNA:RNA)
RNA: B1 RNA with G25A, G26A, G27C, A28G, C29A, U30C
DNA 1: CAATCTGAATTCCGGTCTCCC
DNA 2: TGGTGGCTACGACGGGATT
B14: AUGCGCU (DNA:RNA)
RNA: B1 RNA with G25A, G26U, A28C, C29G, U30C, G31U
DNA 1: CAATCTGAATTCCGGTCTCCC
DNA 2: TGGTGGCTACGACGGGATT
B15: UGACGGU (DNA:RNA)
RNA: B1 RNA with G25U, G27A, A28C, C29G, U30G, G31U
DNA 1: CAATCTGAATTCCGGTCTCCC
DNA 2: TGGTGGCTACGACGGGATT
B16: CGCCCAU (DNA:RNA)
RNA: B1 RNA with G25C, G27C, A28C, U30A, G31U
DNA 1: CAATCTGAATTCCGGTCTCCC
DNA 2: TGGTGGCTACGACGGGATT
B17: AGACCUG (DNA:RNA)
RNA: B1 RNA with G25A, G27A, A28C
DNA 1: CAATCTGAATTCCGGTCTCCC
DNA 2: TGGTGGCTACGACGGGATT
B18: CAGGCGU (DNA:RNA)
RNA: B1 RNA with G25C, G26A, A28G, U30G, G31U
DNA 1: CAATCTGAATTCCGGTCTCCC
DNA 2: TGGTGGCTACGACGGGATT
B19: UACCUCU (DNA:RNA)
RNA: GGGAGACCGGAAUUCAGAUUGUCCUACCUCUUUAAAUCCCGUCGUAGCCACCA
DNA 1: CAATCTGAATTCCGGTCTCCC
DNA 2: TGGTGGCTACGACGGGATT
B20: CACGUAU (DNA:RNA)
RNA: B19 RNA with U25C, C28G, C30A
DNA 1: CAATCTGAATTCCGGTCTCCC
DNA 2: TGGTGGCTACGACGGGATT
B21: AUAAAUA (DNA:RNA)
RNA: B1 RNA with G25A, G26U, G27A, C29A, G31A
DNA 1: CAATCTGAATTCCGGTCTCCC
DNA 2: TGGTGGCTACGACGGGATT
B22: AUCGUCC (DNA:RNA)
RNA: B19 RNA with U25A, A26U, C28G, U31C
DNA 1: CAATCTGAATTCCGGTCTCCC
DNA 2: TGGTGGCTACGACGGGATT
B23: UCCCUGG (DNA:RNA)
RNA: B19 RNA with A26C, C30G, U31G
DNA 1: CAATCTGAATTCCGGTCTCCC
DNA 2: TGGTGGCTACGACGGGATT
B24: GGAUUAC (DNA:RNA)
RNA: B1 RNA with G27A, A28U, C29U, U30A, G31C
DNA 1: CAATCTGAATTCCGGTCTCCC
DNA 2: TGGTGGCTACGACGGGATT
B25: AGCUUGC (DNA:RNA)
RNA: B19 RNA with U25A, A26G, C28U, C30G, U31C
DNA 1: CAATCTGAATTCCGGTCTCCC
DNA 2: TGGTGGCTACGACGGGATT
B26: UGUUGUG (DNA:RNA)
RNA: B1 RNA with G25U, G27U, A28U, C29G
DNA 1: CAATCTGAATTCCGGTCTCCC
DNA 2: TGGTGGCTACGACGGGATT
B27: GAAGAGA (DNA:RNA)
RNA: B1 RNA with G26A, G27A, A28G, C29A, U30G, G31A
DNA 1: CAATCTGAATTCCGGTCTCCC
DNA 2: TGGTGGCTACGACGGGATT
B28: GAGGCGU (DNA:RNA)
RNA: B1 RNA with G26A, A28G, U30G, G31U
DNA 1: CAATCTGAATTCCGGTCTCCC
DNA 2: TGGTGGCTACGACGGGATT
B29: GAGUCCG (DNA:RNA)
RNA: B1 RNA with G26A, A28U, U30C
DNA 1: CAATCTGAATTCCGGTCTCCC
DNA 2: TGGTGGCTACGACGGGATT
B30: ACACGAC (DNA:RNA)
RNA: B19 RNA with U25A, A26C, C27A, U29G, C30A, U31C
DNA 1: CAATCTGAATTCCGGTCTCCC
DNA 2: TGGTGGCTACGACGGGATT
B31: UAGAAAU (DNA:RNA)
RNA: B19 RNA with C27G, C28A, U29A, C30A
DNA 1: CAATCTGAATTCCGGTCTCCC
DNA 2: TGGTGGCTACGACGGGATT

Changes are numbered by the printed parent chain; changes in the protein carry UniProt numbers. This is one part of the list.

The assay addresses T1, RBFOX1 RRM. Nature of the assay: EMSA; HiTS-Eq, 1 nM pool, 10 min; buffer printed only for the single-RNA assays: 10 mM Tris pH 7.5, 150 mM NaCl, 3.4 mM EDTA, 0.001% NP-40, 30 C. The settings on record: tags: His6 N-terminal (pET28a); label: 5' 32P. In short, it runs like this:
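A pool of RNA with 7 randomized nucleotides, 5′-radiolabelled and with DNA-annealed flanks, was equilibrated at 1 nM for 10 min in 50 µL with purified RbFox RRM, wild type or mutant, across increasing protein concentrations. Free RNA was separated by 8% native PAGE, excised, reverse-transcribed, barcoded by PCR and sequenced. Relative association constants were obtained from read-count changes of each RNA species versus the control reaction and normalised to the cognate motif.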
With B1, the binding signal was 0.0322 KA relative to UGCAUGU.

B2: the binding signal is 0.016 KA relative to UGCAUGU.

On to B3, for which the binding signal is 0.0165 KA relative to UGCAUGU.

In the case of B4, the binding signal was 0.0173 KA relative to UGCAUGU.

Turning to B5, the binding signal was 0.00142 KA relative to UGCAUGU.

Take B6: the binding signal is 0.0128 KA relative to UGCAUGU.

On to B7, for which the binding signal was 0.014 KA relative to UGCAUGU.

On to B8, for which the binding signal was 0.0226 KA relative to UGCAUGU.

Take B9: the binding signal was 0.0356 KA relative to UGCAUGU.

Turning to B10, the binding signal was 0.014 KA relative to UGCAUGU.

Regarding B11, the binding signal was 0.0108 KA relative to UGCAUGU.

For the molecule B12, the binding signal is 0.00665 KA relative to UGCAUGU.

For B13, the binding signal was 0.00377 KA relative to UGCAUGU.

Take B14: the binding signal was 0.0127 KA relative to UGCAUGU.

As for B15, the binding signal was 0.0205 KA relative to UGCAUGU.

Regarding B16, the binding signal is 0.00281 KA relative to UGCAUGU.

With B17, the binding signal is 0.0122 KA relative to UGCAUGU.

Consider B18, for which the binding signal is 0.0136 KA relative to UGCAUGU.

On to B19, for which the binding signal is 0.00134 KA relative to UGCAUGU.

B20: the binding signal is 0.00307 KA relative to UGCAUGU.

Regarding B21, the binding signal is 0.00163 KA relative to UGCAUGU.

On to B22, for which the binding signal was 0.0088 KA relative to UGCAUGU.

With B23, the binding signal is 0.014 KA relative to UGCAUGU.

With B24, the binding signal was 0.0169 KA relative to UGCAUGU.

On to B25, for which the binding signal was 0.0314 KA relative to UGCAUGU.

Regarding B26, the binding signal was 0.0291 KA relative to UGCAUGU.

Take B27: the binding signal is 0.00922 KA relative to UGCAUGU.

For the molecule B28, the binding signal is 0.0192 KA relative to UGCAUGU.

On to B29, for which the binding signal was 0.0128 KA relative to UGCAUGU.

As to B30, the binding signal was 0.0059 KA relative to UGCAUGU.

As to B31, the binding signal was 0.00652 KA relative to UGCAUGU.
